The campaign covered roughly 43,000 compounds. About 200 (0.47%) were called active. Not shown: some 12% with an inconclusive outcome. Calls follow the shape of the dose curve; as a rule, active = well fitted cell-killing curve with a large enough effect; inconclusive = small, poorly fitted or top-dose-only effect, or effect the other way; inactive = flat fitted curve, though single readings scatter. Some of the results follow.
% is scaled to controls: 0 for no effect and ±100 for the full control effect.

This experiment is described as follows: Cell viability qHTS assay in S16 Pmp22-F2sN cells. Also: nearly all actives have a fitted effect of over 65% in size. Particulars: S16 Pmp22-F2sN Schwann cells viability, CellTiter-Glo, 24 h; series mostly up to 57.5 µM; activity change, negative = cytotoxicity: at the top concentration. Summed up:
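Used to flag compounds lowering reporter output through toxicity, this quantitative HTS measures ATP-based CellTiter-Glo luminescence in S16 Pmp22-F2sN Schwann cells after 24 h compound exposure at 37C.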
For the molecule `CCOc1ccc(-n2c(SCC(=O)N3CCCCC3)nc3c([nH]c4ccccc43)c2=O)cc1`, the “activity change, negative = cytotoxicity” value is inactive: 14.9%.

Consider `Cc1c(C(=O)N2CCC(C(=O)Nc3ccc(F)cc3)CC2)sc2nc[nH]c(=O)c12`, for which the “activity change, negative = cytotoxicity” value is inactive: 16.8%.

Regarding `Cc1noc2ncnc(NCc3cccc(Cl)c3)c12`, the “activity change, negative = cytotoxicity” value was inactive: -8.07%.

Take `Cc1cccc(-n2c3nc(=O)n(C)c(=O)c-3cc3ccc(Cl)cc32)c1C`: the “activity change, negative = cytotoxicity” value was inactive: -3.63%.

Regarding `Oc1cccc(Nc2ncnc3sc4c(c23)CCCC4)c1`, the “activity change, negative = cytotoxicity” value was inactive: -15.2%.

As to `CS(=O)(=O)N1CCc2cc(C(=O)NCc3ccccc3)ccc21`, the “activity change, negative = cytotoxicity” value is inactive: 1.26%.

In the case of `Cc1nc2nc(NC(=O)c3ccc(Cl)cc3)[nH]n2c(=O)c1Cc1ccccc1`, the “activity change, negative = cytotoxicity” value is inactive: -0.589%.

With `O=C(CSc1nc(=O)n(Cc2ccco2)c2c1CCC2)NCc1ccc(F)cc1`, the “activity change, negative = cytotoxicity” value is inactive: 10.8%.

With `CC1=C(C(=O)Nc2ccccc2C)C(c2ccccn2)n2nc(SCc3ccccc3F)nc2N1` (configuration not stated), the “activity change, negative = cytotoxicity” value is inactive: -21.2%.

Regarding `COc1ccc2nc(NC(=O)c3ccc(S(=O)(=O)N4CCCC(C)C4)cc3)sc2c1` (configuration not stated), the “activity change, negative = cytotoxicity” value is inactive: 4.75%.

As for `CC(NC(=O)Cn1c(-c2cccs2)cc2cc(F)ccc21)c1ccccc1` (configuration not stated), the “activity change, negative = cytotoxicity” value is inactive: 6.35%.

`O=C(NC1CC(=O)N(c2ccc(Cl)cc2)C1)c1cccs1` (configuration not stated): the “activity change, negative = cytotoxicity” value was inactive: 8.49%.

As to `O=c1[nH]c(SCc2ccc(Br)cc2)nc2c1CCCC2`, the “activity change, negative = cytotoxicity” value is inactive: 12.4%.

Consider `Cc1ccc(S(=O)(=O)c2nnn3c2nc(N2CCN(c4ccccc4F)CC2)c2ccccc23)cc1C`, for which the “activity change, negative = cytotoxicity” value was inactive: -3.85%.

With `COc1ccc(-n2c(=O)c3ccc(C(=O)NCc4ccc(C)cc4)cc3n(CC(=O)Nc3ccc(C)cc3)c2=O)cc1`, the “activity change, negative = cytotoxicity” value is inactive: -0.358%.

For `Cc1ccc(Cn2c(C(=O)O)c(CNCCc3ccco3)c3ccc(C)cc32)cc1`, the “activity change, negative = cytotoxicity” value is inactive: 17.2%.

Take `CCOc1cc(-c2nc(-c3ccc(-c4ccc(OC)cc4)nc3OC)no2)cc(OCC)c1OCC`: the “activity change, negative = cytotoxicity” value was inactive: -2.52%.

As for `COCCCNC(=O)C1CCN(c2cc(C)nc3c(-c4ccc(OC)c(OC)c4)c(C)nn23)CC1`, the “activity change, negative = cytotoxicity” value is inactive: -3.14%.

`COc1ccc(Cl)cc1NC(=O)c1nn(C)c2c1CS(=O)(=O)c1ccccc1-2`: the “activity change, negative = cytotoxicity” value was inactive: 6.02%.

Consider `COc1ccccc1NC(=O)CCn1c(=O)oc2cc(Cl)ccc21`, for which the “activity change, negative = cytotoxicity” value was inactive: 5.95%.

Take `COc1ccc(-n2cc(C(=O)NCc3cccc(OC)c3)c3ccccc3c2=O)cc1`: the “activity change, negative = cytotoxicity” value was inactive: 11.2%.

In the case of `CC(=O)c1ccc(N2CCN(C3C(=O)c4ccccc4N3C(C)=O)CC2)cc1` (configuration not stated), the “activity change, negative = cytotoxicity” value is inactive: 13.2%.

With `O=S(=O)(c1ccc(Br)cc1)c1nnn2c1nc(NCc1cccs1)c1sccc12`, the “activity change, negative = cytotoxicity” value was inactive: 9.14%.

In the case of `COc1ccc(-c2cc(C(=O)NCCc3ccccc3)c3cc(C(C)C)ccc3n2)cc1`, the “activity change, negative = cytotoxicity” value was inactive: -2.7%.

Take `Cc1c(Cl)cccc1NC(=O)CN1C(=O)CCn2nc(-c3cccn3C)cc21`: the “activity change, negative = cytotoxicity” value is inactive: -19.9%.

Consider `COCCN(CCOC)C(=O)c1cc2c(=O)n3ccccc3nc2n1C`, for which the “activity change, negative = cytotoxicity” value was inactive: 2.37%.

Turning to `CCOC(=O)C(Cc1c[nH]c2ccccc12)NC(=O)COc1ccc(Cl)cc1` (configuration not stated), the “activity change, negative = cytotoxicity” value was inactive: 10.8%.
